{
  "source": "patent US20050176758A1",
  "about": "“NOVEL COMPOUNDS AND METHODS FOR SYNTHESIS AND THERAPY” (priority 1995, published 2005)",
  "key": {"[1]": {"system": "Influenza A/NWS/33 (H1N1)", "assay": "Influenza A (H1N1) virus-infected mice, i.p. treatment (Table I)", "settings": "for Mean Lung Parameters Weight / Mean Lung Parameters Score: day 6; for Mean Lung Parameters Score: 0=normal, 4=100% of lung affected; for Mean SaO2 %: mean of days 3-10; for Surv/Total: bid x 5 beginning 4 hr pre-virus exposure, held 21 days"}, "[2]": {"system": "Influenza A/NWS/33 (H1N1)", "assay": "Influenza A (H1N1) virus-infected mice, oral gavage treatment (Table II)", "settings": "for Mean Surv. Time / Mean Surv. Time (days): animals dying on or before day 21; for Mean SaO2 %: mean of days 3-10; for Surv/Total: bid x 5 beginning 4 hr pre-virus exposure, held 21 days"}, "[3]": {"settings": "10 mg/kg/day p.o., bid x 5, day 6"}, "[4]": {"settings": "50 mg/kg/day p.o., bid x 5, day 6"}, "[5]": {"settings": "250 mg/kg/day p.o., bid x 5, day 6"}, "[6]": {"settings": "32 mg/kg/day p.o., bid x 5, day 6"}, "[7]": {"settings": "100 mg/kg/day p.o., bid x 5, day 6"}},
  "note": "Marks after values point to notes of the source that are not given here.",
  "data": [
    {"smiles": "CC(=O)N[C@H]1[C@H]([C@H](O)[C@H](O)CO)OC(C(=O)O)=C[C@@H]1N=C(N)N", "note": "[GG167, 4-guanidino-2,4-dideoxy-2,3-dehydro-N-acetylneuraminic acid]", "values": [
      {"measurement": "Mean Surv. Time", "setting": "[1]; 0.5 mg/kg/day i.p., bid x 5, animals dying on or before day 21", "result": 12.3, "unit": "days"},
      {"measurement": "Mean Lung Parameters Weight", "setting": "[1]; 0.5 mg/kg/day i.p., bid x 5", "result": 227, "unit": "mg"},
      {"measurement": "Mean Lung Parameters Score", "setting": "[1]; 0.5 mg/kg/day i.p., bid x 5", "result": 2.3},
      {"measurement": "Mean SaO2 %", "setting": "[1]; 0.5 mg/kg/day i.p., bid x 5", "result": 84.5, "unit": "%"},
      {"measurement": "Surv/Total", "setting": "[1]; 0.5 mg/kg/day i.p.", "result": "0/8"},
      {"measurement": "Mean Surv. Time", "setting": "[1]; 2 mg/kg/day i.p., bid x 5, animals dying on or before day 21", "result": 12.6, "unit": "days"},
      {"measurement": "Mean Lung Parameters Weight", "setting": "[1]; 2 mg/kg/day i.p., bid x 5", "result": 213, "unit": "mg"},
      {"measurement": "Mean Lung Parameters Score", "setting": "[1]; 2 mg/kg/day i.p., bid x 5", "result": 1.3},
      {"measurement": "Mean SaO2 %", "setting": "[1]; 2 mg/kg/day i.p., bid x 5", "result": "86.0** %"},
      {"measurement": "Surv/Total", "setting": "[1]; 2 mg/kg/day i.p.", "result": "1/8"},
      {"measurement": "Mean Surv. Time", "setting": "[1]; 10 mg/kg/day i.p., bid x 5, animals dying on or before day 21", "result": 15.0, "unit": "days"},
      {"measurement": "Mean Lung Parameters Weight", "setting": "[1]; 10 mg/kg/day i.p., bid x 5", "result": "170* mg"},
      {"measurement": "Mean Lung Parameters Score", "setting": "[1]; 10 mg/kg/day i.p., bid x 5", "result": 1.7},
      {"measurement": "Mean SaO2 %", "setting": "[1]; 10 mg/kg/day i.p., bid x 5", "result": "87.5** %"},
      {"measurement": "Surv/Total", "setting": "[1]; 10 mg/kg/day i.p.", "result": "7/8**"},
      {"measurement": "Mean Surv. Time (days)", "setting": "[1]; 50 mg/kg/day i.p., bid x 5, animals dying on or before day 21", "result": ">21.0** days"},
      {"measurement": "Mean Lung Parameters Weight", "setting": "[1]; 50 mg/kg/day i.p., bid x 5", "result": 230, "unit": "mg"},
      {"measurement": "Mean Lung Parameters Score", "setting": "[1]; 50 mg/kg/day i.p., bid x 5", "result": "0.7*"},
      {"measurement": "Mean SaO2 %", "setting": "[1]; 50 mg/kg/day i.p., bid x 5", "result": "87.6** %"},
      {"measurement": "Surv/Total", "setting": "[1]; 50 mg/kg/day i.p.", "result": "8/8**"},
      {"measurement": "Mean Surv. Time", "setting": "[2]; 10 mg/kg/day p.o., bid x 5", "result": 10.5, "unit": "days"},
      {"measurement": "Mean Lung Parameters Weight", "setting": "[2]; [3]", "result": 250, "unit": "mg"},
      {"measurement": "Mean Lung Parameters Score", "setting": "[2]; [3]", "result": "1.5*"},
      {"measurement": "Mean SaO2 %", "setting": "[2]; 10 mg/kg/day p.o., bid x 5", "result": 85.2, "unit": "%"},
      {"measurement": "Surv/Total", "setting": "[2]; 10 mg/kg/day p.o.", "result": "5/7*"},
      {"measurement": "Mean Surv. Time (days)", "setting": "[2]; 50 mg/kg/day p.o., bid x 5", "result": ">21.0** days"},
      {"measurement": "Mean Lung Parameters Weight (mg)", "setting": "[2]; [4]", "result": "187* mg"},
      {"measurement": "Mean Lung Parameters Score", "setting": "[2]; [4]", "result": "1.5*"},
      {"measurement": "Mean SaO2 %", "setting": "[2]; 50 mg/kg/day p.o., bid x 5", "result": "88.0* %"},
      {"measurement": "Surv/Total", "setting": "[2]; 50 mg/kg/day p.o.", "result": "8/8**"},
      {"measurement": "Mean Surv. Time (days)", "setting": "[2]; 250 mg/kg/day p.o., bid x 5", "result": ">21.0** days"},
      {"measurement": "Mean Lung Parameters Weight (mg)", "setting": "[2]; [5]", "result": "163** mg"},
      {"measurement": "Mean Lung Parameters Score", "setting": "[2]; [5]", "result": "0.3**"},
      {"measurement": "Mean SaO2 %", "setting": "[2]; 250 mg/kg/day p.o., bid x 5", "result": "88.6* %"},
      {"measurement": "Surv/Total", "setting": "[2]; 250 mg/kg/day p.o.", "result": "8/8**"}
    ]},
    {"smiles": "NC(=O)c1ncn([C@@H]2O[C@H](CO)[C@@H](O)[C@H]2O)n1", "note": "[Ribavirin, ribavirin]", "values": [
      {"measurement": "Mean Surv. Time", "setting": "[2]; 10 mg/kg/day p.o., bid x 5", "result": 11.0, "unit": "days"},
      {"measurement": "Mean Lung Parameters Score", "setting": "[2]; [3]", "result": 2.2},
      {"measurement": "Mean SaO2 %", "setting": "[2]; 10 mg/kg/day p.o., bid x 5", "result": 86.4, "unit": "%"},
      {"measurement": "Surv/Total", "setting": "[2]; 10 mg/kg/day p.o.", "result": "3/8"},
      {"measurement": "Mean Surv. Time", "setting": "[2]; 32 mg/kg/day p.o., bid x 5", "result": 13.0, "unit": "days"},
      {"measurement": "Mean Lung Parameters Weight (mg)", "setting": "[2]; [6]", "result": "163** mg"},
      {"measurement": "Mean Lung Parameters Score", "setting": "[2]; [6]", "result": "0.8**"},
      {"measurement": "Mean SaO2 %", "setting": "[2]; 32 mg/kg/day p.o., bid x 5", "result": "88.0* %"},
      {"measurement": "Surv/Total", "setting": "[2]; 32 mg/kg/day p.o.", "result": "6/8*"},
      {"measurement": "Mean Surv. Time (days)", "setting": "[2]; 100 mg/kg/day p.o., bid x 5", "result": ">21.0** days"},
      {"measurement": "Mean Lung Parameters Weight (mg)", "setting": "[2]; [7]", "result": "140** mg"},
      {"measurement": "Mean Lung Parameters Score", "setting": "[2]; [7]", "result": "0.3**"},
      {"measurement": "Mean SaO2 %", "setting": "[2]; 100 mg/kg/day p.o., bid x 5", "result": "88.2* %"},
      {"measurement": "Surv/Total", "setting": "[2]; 100 mg/kg/day p.o.", "result": "8/8**"}
    ]}
  ]
}
